In paper PMC10290124:

Target: full-length wild-type human TRPV4 (human) (UniProt Q9HBA0)
Assay: cryo-EM structure; hTRPV4 purified from HEK 293S cells in GDN (20 mM Tris pH 8.0, 150 mM NaCl, 1 mM βME, 0.01% GDN) with endogenous RhoA carried along; apo state, no added ligands; grids frozen at 22 °C

stoichiometry N: 4 subunits
Substance: full-length wild-type human TRPV4 (a stretch of the chain, letters omitted) (natural protein; other documents disagree on this pair)
